Test results as given in the supplement of paper PMC11417369.
± gives the standard deviation of the averaged measurements. The list shows a part of the results.

What follows are sequences tested on PfAP2-LT AP2 domain (GST-tagged) (assay: gcPBM binding intensity (ln(normalized median fluorescence intensity)); higher = stronger DNA binding).
Outline: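 The highest Masliner-normalised natural-log median intensity across replicate spots of either probe orientation is reported as binding intensity. GST-tagged P. falciparum DNA-binding domains expressed in E. coli were applied for 1 h to an Agilent 4 × 180k array of primer-extended double-stranded 36-bp intergenic genomic probes plus negative controls, and bound protein was detected with Alexa488 anti-GST antibody and scanned at 488 nm.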

Sequence | gcPBM binding intensity (ln)
TTTGAATACTGAATGGTGCAAATTGTTCTCCCCATG | 8.67 ± 0.57
AGTATAACTTTTGCGCGTACACACATTTATCCTCTT [XGTACX_site429] | 9.64 ± 0.53
TATATTAAAATAATCACACACATCAATTAATGGTAA [CACACA_site1234] | 8.97 ± 0.32
TATAATAATATTTACACACGCATATGTTATATATAT [CACACA_site1477] | 9.11 ± 0.32
TGTATATGGTTTGTGCAAAAATTTATTAATGTGTAA [TGCATGCA_negctrl_site374] | 8.74 ± 0.51
TACAAATGCGTATGTCAATATATGGAGAAATAAATA [TGCATGCA_negctrl_site290] | 8.74 ± 0.44
ATTTGTATATACATATGTACACATGTAGGCTCATAA [XGTACX_site1709] | 9.05 ± 0.38
TTTCGTAAACTTTATGCACACACATATACATATTTC [CACACA_site8146] | 9.41 ± 0.31
TATTTTTTGAAAAGTTCACACATCCAACTCGAGTTG [CACACA_site4412] | 8.87 ± 0.39
AAAAAAAAAAAAAATACACACATATTTTATAGGGGA [CACACA_site3261] | 8.98 ± 0.49
AAAATAATGAAATGAAAAAAAAAAATTTAGATTCTA [CACACA_negctrl_site1385] | 8.33 ± 0.61
TTATATATTTTTAGGTGTACTTTTTTTTTTTTTTTT [XGTACX_site8164] | 8.6 ± 0.59
GTCATATATTTATGTACACACATATATATATTTATA [CACACA_site4911] | 9.04 ± 0.28
AAAAAACAAATAAGTAAACACACATATATAATATAT [CACACA_site8830] | 9.07 ± 0.43
CTAATTGTTATTTTGTGTACTTATCATTCGAAATAT [XGTACX_site7963] | 8.86 ± 0.43
TAGATGTAAGTACATACACACATATATAAATAAATA [CACACA_site8528] | 9.19 ± 0.45
ATATATATTTTAATTACACACAAAAAAAAAAAAAAA [CACACA_site4778] | 8.57 ± 0.47
ATATATATTTTATATTGTACTTATTATTTTTAGGGC [XGTACX_site723] | 8.69 ± 0.44
AGGATATATATATTCACACACACATGGAAATATATA [CACACA_site383] | 9.46 ± 0.28

Sequence | gcPBM binding intensity (ln)
TATGAATATCTATACACACACATATAAATACACGCT [CACACA_site6853] | 9.46 ± 0.26
ATTATAATATATATATGTACATATATATATAATACT [XGTACX_site5092] | 8.77 ± 0.33
GTATAATTGGAAATTACACACCTTAGAATGTAACAT [CACACA_site4059] | 8.85 ± 0.37
ATATATAATATTGGTGGTACAAGGGTATTTTATATT [XGTACX_site8215] | 8.85 ± 0.36
TATAATATACTATGTGGTACATATATATATTTATAG [XGTACX_site4556] | 8.72 ± 0.46
TCATTTATTTTTCTTTGTACACAAAAGTTTTTATGT [XGTACX_site690] | 8.92 ± 0.41
CATATGTTATATGTAGTGCATTACTATAGGATTTAT [GTGCAC_site9860] | 8.77 ± 0.4
TATTTTGCAAAATGTGCATGTTGTGTATTATGTGAC [TGCATGCA_site59] | 9.02 ± 0.33
TGGTATGCAATATTGGTGCGTATATATTTTAAAGGG | 8.8 ± 0.45
TATTTTTAATTTTTTAATGGTTTAATATTTTTATAT [CACACA_negctrl_site1186] | 8.41 ± 0.47
TATTCTAAGATAAGTGGTACTTATATATAATATATA [XGTACX_site8316] | 8.46 ± 0.43
TCTTTAGCTTCTTCTTTTTTTTTTTTTTTTTTTTTT [XGTACX_negctrl_site518] | 8.43 ± 0.65
ATATATATATATATATGTACATAAACATATATATAT [XGTACX_site1064] | 9.22 ± 0.2
AACGAAAACACTACGTGTACCAAACGTCCTACCAAC [XGTACX_site257] | 9.07 ± 0.42
TAATTAAGAATATATAGTACATAGTTGAAAAACTTT [XGTACX_site6359] | 8.55 ± 0.52
AAGATAAAAATATGCACACATATATATATATATATA [CACACA_site404] | 10.1 ± 0.17
AATAGTTAAATACATACATGCATTCATATAATATAT [TGCATGCA_site433] | 8.79 ± 0.4
AATGTACGCATATACACACACATAAATAGATACGTA [CACACA_site3406] | 9.55 ± 0.38
TTTTTTTTTTTTTTTTTTTTACGATATATTTTAAAA [XGTACX_negctrl_site401] | 8.22 ± 0.25

Sequence | gcPBM binding intensity (ln)
TAGATCATAACAATTGCACACATTTGCATTTATATT [CACACA_site1562] | 9.11 ± 0.4
TTTTTACTTATTTATTATGTACAATTTCTTCTTTCT [CACACA_negctrl_site264] | 8.82 ± 0.52
TTCAAAAAATATATCTGTACAAATTATGTAGATGAA [XGTACX_site5522] | 8.62 ± 0.41
AGTATTTTGTTTATCACACATATTGGAATTTTCAAT [CACACA_site4686] | 8.95 ± 0.3
AAAATAATTCAATGTAGTACAATACAAATTGAGAGA [XGTACX_site5991] | 8.82 ± 0.39
AAAATTATACACACACGTACATATAAATAGAAATAT [XGTACX_site1753] | 9.48 ± 0.38
TTTGTTGGTATGGTTACACACATTTAGGAAATAAAA [CACACA_site1411] | 8.63 ± 0.41
TCTTATAAATTAAATATAAAAAAAAAAAAAAAAAAA [XGTACX_negctrl_site77] | 7.96 ± 0.45
TTTTTATAACAGCTTAGTACATATAAGAATTCTTGC [XGTACX_site5890] | 8.64 ± 0.33
GACCCCATATACATATGTACATACATAATATATATA [XGTACX_site1817] | 9.04 ± 0.43
GGTGTTTTTCACAGATGTACACAAATAAAAAAGAAA [XGTACX_site4454] | 8.71 ± 0.54
TATATATAAAAAAAAAGTACATATAATATAATATTT [XGTACX_site7902] | 8.51 ± 0.49
AAATGGACAGTATAAAAATGGAGAATATAAAAATTT [CACACA_negctrl_site889] | 8.87 ± 0.61
AAAAAAAAAAAAAATAAATAAATAAATAAATATATA [GTGCAC_negctrl_site382] | 8.44 ± 0.54
CCTTTTTATTTTTGTAGTACTACATATACATATCTG [XGTACX_site7791] | 9.03 ± 0.44
ATATTAAAAAAATATAAACACACAAAAAAAAAATAT [CACACA_site8283] | 8.95 ± 0.5
TATTCAAAGAAAAACTGTACGTGTAGCAAACGTCAT [XGTACX_site7713] | 8.65 ± 0.34
TCGAATATCTTATAGGTGCATCATAAATACATATGT | 8.86 ± 0.42
TAATTCTTTATTTTTCGTACGTAAAACAAAAAATAT [XGTACX_site862] | 8.29 ± 0.54
